The full ranking holds about 13,000 compounds; the median of “IFI” is about 4, and the highest 2% start at about 17. Some of the results follow.

A short description of this assay: GSK_TCMDC: Inhibition Frequency Index (IFI). The number of non-kinase HTS assays where a compound showed > 50 % inhibition, expressed as a percentage of the number of such assays in which the compound was tested (-0 is zero). Type of assay: functional.
As for `CC(C)(C)c1ccc(CN2CCC(CNC(=O)c3cc(-c4ccccc4F)cs3)C2)cc1` (centres undefined), the IFI worked out at 17%.

On to `Cc1cc(=NN=CC=Cc2ccccc2)c2ccc(F)cc2[nH]1`, for which the IFI stood at 0.74%.

With `CCNC(=O)Nc1ccc(-c2ccc(-c3nc4cccc(C)c4[nH]3)s2)cc1`, the IFI turned out to be 4%.

With `COc1cc2c(cc1OCCN1CCC(N3CCCCC3)CC1)N(C(=O)/C=C/c1ccccc1OC(F)(F)F)CC2`, the IFI is 10.9%.

`Cc1nc(-c2cccc3c(NC(=O)N4CCc5cc6nccc(N7CCN(C)CC7)c6cc54)cccc23)no1` returned an IFI of 4.17%.

For `COc1cccc(C(NC(=O)c2ccccc2)c2ccc3cccnc3c2O)c1` (centres undefined), the IFI stood at 7.35%.

Regarding `CN1Cc2cc(NC(=O)/C=C/c3ccccc3Cl)ccc2C(C)(C)C1`, the IFI worked out at 0.74%.

`N=C(N)NC(=O)Nc1cc(Br)c(Cl)c(C(F)(F)F)c1`: the IFI was found to be 11.1%.

`O=C(NCCCCN1CCC(c2ccc3c(c2OCCO)CCCC3)CC1)c1ccc2oc(-c3ccc(C(F)(F)F)cc3)cc2c1` showed an IFI of 9.01%.

`COc1ccc(C(=O)CCC(=O)N(Cc2ccc(-c3ccc(CNCCc4ccc(S(C)(=O)=O)cc4)cn3)cc2)C2CCN(Cc3ccccc3)CC2)cc1F`: the IFI turned out to be 8.39%.

As for `CCOc1ccc(-c2nonc2NC(=O)CC(C)C)cc1OCC`, the IFI is -0%.

`O=C(Nc1ccc(C(F)(F)F)cc1)c1ccc(S(=O)(=O)NC2CCN(Cc3ccccc3)C2)cc1` (centres undefined) came in with an IFI of 8.43%.

As to `COc1ccc2nc3cc(Cl)ccc3c(Nc3ccc(O)c(CNC(C)C)c3)c2c1`, the IFI was 7.64%.

`CCCC(C(CC1CCC(C)CC1)C(=O)NC(CCCNc1ncccn1)C(=O)Nc1nccs1)N(O)C=O` (centres undefined) registered an IFI of 4.44%.

Molecule `Nc1cccc(CNCc2ccc(-c3cccc(-c4nc5cc(C(F)(F)F)ccc5[nH]4)c3)cc2)c1` gave an IFI of 15.2%.

In the case of `Cc1ccc2nc(-c3ccc(C(=O)NCc4ccc(Cl)c(Cl)c4)cc3)[nH]c2c1C`, the IFI was determined as 2.9%.

Molecule `c1ccc(C(c2ccccc2)N2CCN(C(c3cccnc3)c3nnnn3C3CCCC3)CC2)cc1` (centres undefined) returned an IFI of 2.44%.

In the case of `N=C(Cc1ccc(Cl)cc1)NCCN1CCCCCC1`, the IFI is 0.71%.

As to `CC[C@H](NC(=O)c1c(CN2CCC(N3CCCCC3)CC2)c(-c2ccccc2)nc2c(Cl)c(O)ccc12)c1ccccc1`, the IFI turned out to be 0.72%.

`Cc1nnc2sc(-c3cccc(NC(=O)c4ccc(N5CCCCC5)c([N+](=O)[O-])c4)c3)nn12` returned an IFI of 1.47%.

Take `O=C(n1c(-c2cc3ccccc3n2C(=O)C(F)(F)F)cc2ccccc21)C(F)(F)F`: the IFI came to 9.79%.

In turn, `O=C(/C=C/c1ccc(Cl)c(Cl)c1)NCCCCCCN1CCCN(C(=O)Nc2cccc(C(F)(F)F)c2)CC1` showed an IFI of 8.26%.

For `CCCC(=O)NC(c1ccc(C)cc1)c1ccc2cccnc2c1O` (centres undefined), the IFI turned out to be 5.07%.

`CCn1c(SCc2ccc(F)cc2)nc2sc3c(c2c1=O)CCN(C)C3`: the IFI was found to be 0.85%.

Source of the values: ChEMBL document CHEMBL1157539, “Thousands of chemical starting points for antimalarial lead identification” (Nature, 2010).
